Substitutions are numbered along the chain they refer to; changes in the protein carry UniProt numbers. This is one part of the list.
T1: RBFOX1 RRM (Homo sapiens, UniProt Q9NWB1 109-208)
T1 sequence: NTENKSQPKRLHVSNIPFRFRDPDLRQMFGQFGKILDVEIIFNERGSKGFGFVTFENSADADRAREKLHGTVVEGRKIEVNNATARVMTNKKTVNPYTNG

B1: UGUCUCG (DNA:RNA)
RNA: GGGAGACCGGAAUUCAGAUUGUCCUGUCUCGUUAAAUCCCGUCGUAGCCACCA
DNA 1: CAATCTGAATTCCGGTCTCCC
DNA 2: TGGTGGCTACGACGGGATT
B2: CUCAACA (DNA:RNA)
RNA: B1 RNA with U25C, G26U, U27C, C28A, U29A, G31A
DNA 1: CAATCTGAATTCCGGTCTCCC
DNA 2: TGGTGGCTACGACGGGATT
B3: GUAGGGG (DNA:RNA)
RNA: B1 RNA with U25G, G26U, U27A, C28G, U29G, C30G
DNA 1: CAATCTGAATTCCGGTCTCCC
DNA 2: TGGTGGCTACGACGGGATT
B4: UCAAGAU (DNA:RNA)
RNA: B1 RNA with G26C, U27A, C28A, U29G, C30A, G31U
DNA 1: CAATCTGAATTCCGGTCTCCC
DNA 2: TGGTGGCTACGACGGGATT
B5: UGAGCCU (DNA:RNA)
RNA: B1 RNA with U27A, C28G, U29C, G31U
DNA 1: CAATCTGAATTCCGGTCTCCC
DNA 2: TGGTGGCTACGACGGGATT
B6: UGUAAGG (DNA:RNA)
RNA: B1 RNA with C28A, U29A, C30G
DNA 1: CAATCTGAATTCCGGTCTCCC
DNA 2: TGGTGGCTACGACGGGATT
B7: UGUAGCA (DNA:RNA)
RNA: B1 RNA with C28A, U29G, G31A
DNA 1: CAATCTGAATTCCGGTCTCCC
DNA 2: TGGTGGCTACGACGGGATT
B8: GGUAUUA (DNA:RNA)
RNA: B1 RNA with U25G, C28A, C30U, G31A
DNA 1: CAATCTGAATTCCGGTCTCCC
DNA 2: TGGTGGCTACGACGGGATT
B9: GUCCAGC (DNA:RNA)
RNA: B1 RNA with U25G, G26U, U27C, U29A, C30G, G31C
DNA 1: CAATCTGAATTCCGGTCTCCC
DNA 2: TGGTGGCTACGACGGGATT
B10: GGACUAG (DNA:RNA)
RNA: B1 RNA with U25G, U27A, C30A
DNA 1: CAATCTGAATTCCGGTCTCCC
DNA 2: TGGTGGCTACGACGGGATT
B11: GGUGGCG (DNA:RNA)
RNA: B1 RNA with U25G, C28G, U29G
DNA 1: CAATCTGAATTCCGGTCTCCC
DNA 2: TGGTGGCTACGACGGGATT
B12: UUCCAUU (DNA:RNA)
RNA: B1 RNA with G26U, U27C, U29A, C30U, G31U
DNA 1: CAATCTGAATTCCGGTCTCCC
DNA 2: TGGTGGCTACGACGGGATT
B13: UAUGGGA (DNA:RNA)
RNA: B1 RNA with G26A, C28G, U29G, C30G, G31A
DNA 1: CAATCTGAATTCCGGTCTCCC
DNA 2: TGGTGGCTACGACGGGATT
B14: CGGACAU (DNA:RNA)
RNA: B1 RNA with U25C, U27G, C28A, U29C, C30A, G31U
DNA 1: CAATCTGAATTCCGGTCTCCC
DNA 2: TGGTGGCTACGACGGGATT
B15: GAACUGU (DNA:RNA)
RNA: B1 RNA with U25G, G26A, U27A, C30G, G31U
DNA 1: CAATCTGAATTCCGGTCTCCC
DNA 2: TGGTGGCTACGACGGGATT
B16: UCAGCUG (DNA:RNA)
RNA: B1 RNA with G26C, U27A, C28G, U29C, C30U
DNA 1: CAATCTGAATTCCGGTCTCCC
DNA 2: TGGTGGCTACGACGGGATT
B17: UUUCCGU (DNA:RNA)
RNA: B1 RNA with G26U, U29C, C30G, G31U
DNA 1: CAATCTGAATTCCGGTCTCCC
DNA 2: TGGTGGCTACGACGGGATT
B18: AAUCCGU (DNA:RNA)
RNA: B1 RNA with U25A, G26A, U29C, C30G, G31U
DNA 1: CAATCTGAATTCCGGTCTCCC
DNA 2: TGGTGGCTACGACGGGATT
B19: UGCCCGC (DNA:RNA)
RNA: B1 RNA with U27C, U29C, C30G, G31C
DNA 1: CAATCTGAATTCCGGTCTCCC
DNA 2: TGGTGGCTACGACGGGATT
B20: CGUUACA (DNA:RNA)
RNA: B1 RNA with U25C, C28U, U29A, G31A
DNA 1: CAATCTGAATTCCGGTCTCCC
DNA 2: TGGTGGCTACGACGGGATT
B21: CAAAAUG (DNA:RNA)
RNA: B1 RNA with U25C, G26A, U27A, C28A, U29A, C30U
DNA 1: CAATCTGAATTCCGGTCTCCC
DNA 2: TGGTGGCTACGACGGGATT
B22: GCUGUCG (DNA:RNA)
RNA: B1 RNA with U25G, G26C, C28G
DNA 1: CAATCTGAATTCCGGTCTCCC
DNA 2: TGGTGGCTACGACGGGATT
B23: ACCCUCA (DNA:RNA)
RNA: B1 RNA with U25A, G26C, U27C, G31A
DNA 1: CAATCTGAATTCCGGTCTCCC
DNA 2: TGGTGGCTACGACGGGATT
B24: AGGUCUA (DNA:RNA)
RNA: B1 RNA with U25A, U27G, C28U, U29C, C30U, G31A
DNA 1: CAATCTGAATTCCGGTCTCCC
DNA 2: TGGTGGCTACGACGGGATT
B25: GUUUUUU (DNA:RNA)
RNA: B1 RNA with U25G, G26U, C28U, C30U, G31U
DNA 1: CAATCTGAATTCCGGTCTCCC
DNA 2: TGGTGGCTACGACGGGATT
B26: CCUGUGU (DNA:RNA)
RNA: B1 RNA with U25C, G26C, C28G, C30G, G31U
DNA 1: CAATCTGAATTCCGGTCTCCC
DNA 2: TGGTGGCTACGACGGGATT
B27: CCUCACG (DNA:RNA)
RNA: B1 RNA with U25C, G26C, U29A
DNA 1: CAATCTGAATTCCGGTCTCCC
DNA 2: TGGTGGCTACGACGGGATT
B28: GCCGUUG (DNA:RNA)
RNA: B1 RNA with U25G, G26C, U27C, C28G, C30U
DNA 1: CAATCTGAATTCCGGTCTCCC
DNA 2: TGGTGGCTACGACGGGATT
B29: UAGCGGA (DNA:RNA)
RNA: B1 RNA with G26A, U27G, U29G, C30G, G31A
DNA 1: CAATCTGAATTCCGGTCTCCC
DNA 2: TGGTGGCTACGACGGGATT
B30: AUGAUAA (DNA:RNA)
RNA: B1 RNA with U25A, G26U, U27G, C28A, C30A, G31A
DNA 1: CAATCTGAATTCCGGTCTCCC
DNA 2: TGGTGGCTACGACGGGATT
B31: CCGAGCA (DNA:RNA)
RNA: B1 RNA with U25C, G26C, U27G, C28A, U29G, G31A
DNA 1: CAATCTGAATTCCGGTCTCCC
DNA 2: TGGTGGCTACGACGGGATT

The binders below were run against T1, RBFOX1 RRM (assay: EMSA; HiTS-Eq, 1 nM pool, 10 min; buffer printed only for the single-RNA assays: 10 mM Tris pH 7.5, 150 mM NaCl, 3.4 mM EDTA, 0.001% NP-40, 30 C). Conditions: tags: His6 N-terminal (pET28a); label: 5' 32P.
Summary of the method: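 Purified RbFox RRM (wild type or mutant) was equilibrated for 10 min in 50 µL with 1 nM of a 5′-radiolabelled pool of RNA with 7 randomized nucleotides, its flanks annealed to DNA oligonucleotides, across increasing protein concentrations. Free RNA was separated by 8% native PAGE, excised, reverse-transcribed, PCR-barcoded and sequenced on an Illumina HiSeq 2500. Relative association constants came from read-count changes of each variant against the control reaction, normalised to the cognate motif.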
B1 was tested, and the binding signal was 0.0156 KA relative to UGCAUGU.
For B2, the binding signal was 0.00114 KA relative to UGCAUGU.
In the case of B3, the binding signal is reported as 0.0113 KA relative to UGCAUGU.
In the case of B4, the binding signal is reported as 0.0076 KA relative to UGCAUGU.
For B5, the binding signal was 0.0138 KA relative to UGCAUGU.
B6 was tested, and the binding signal was 0.00889 KA relative to UGCAUGU.
In the case of B7, the binding signal is reported as 0.0201 KA relative to UGCAUGU.
For B8, the binding signal was 0.00455 KA relative to UGCAUGU.
With B9 the binding signal was 0.0098 KA relative to UGCAUGU.
With B10 the binding signal was 0.00981 KA relative to UGCAUGU.
For B11, the binding signal was 0.0174 KA relative to UGCAUGU.
B12 was tested, and the binding signal was 0.00293 KA relative to UGCAUGU.
For B13, the binding signal was 0.00251 KA relative to UGCAUGU.
For B14, the binding signal was 0.019 KA relative to UGCAUGU.
With B15 the binding signal was 0.0163 KA relative to UGCAUGU.
With B16 the binding signal was 0.0139 KA relative to UGCAUGU.
With B17 the binding signal was 0.00961 KA relative to UGCAUGU.
For B18, the binding signal was 0.00022 KA relative to UGCAUGU.
In the case of B19, the binding signal is reported as 0.0206 KA relative to UGCAUGU.
With B20 the binding signal was 0.00337 KA relative to UGCAUGU.
In the case of B21, the binding signal is reported as 0.00232 KA relative to UGCAUGU.
In the case of B22, the binding signal is reported as 0.0197 KA relative to UGCAUGU.
For B23, the binding signal was 0.00311 KA relative to UGCAUGU.
With B24 the binding signal was 0.00527 KA relative to UGCAUGU.
B25 was tested, and the binding signal was 0.0203 KA relative to UGCAUGU.
With B26 the binding signal was 0.0181 KA relative to UGCAUGU.
With B27 the binding signal was 0.00492 KA relative to UGCAUGU.
In the case of B28, the binding signal is reported as 0.0204 KA relative to UGCAUGU.
B29 was tested, and the binding signal was 0.00383 KA relative to UGCAUGU.
With B30 the binding signal was 0.00224 KA relative to UGCAUGU.
With B31 the binding signal was 0.0163 KA relative to UGCAUGU.

Reference: article PMC9911399, “Two distinct binding modes provide the RNA-binding protein RbFox with extraordinary sequence specificity”
